From PubChem BioAssay AID1159614 (National Center for Advancing Translational Sciences (NCATS), 2016)
Hit rate of the full screen: of about 45,000 compounds, about 65 (0.1%) were called active. Calls follow the shape of the dose curve; as a rule, active = well fitted activation curve with a large enough effect; inconclusive = small, poorly fitted or top-dose-only effect; inactive = no such curve, though single readings can be large or run the other way. This is one part of the list.

Each compound was assayed against Galactocerebrosidase (Homo sapiens) (UniProt P54803) (assay: A Novel Cell-Based Assay to Identify Small Molecules for B -Galactocerebrosidase). Details: 145M-Twi-hGALC-G270D cells (Twitcher mouse brain line with human GALC G270D), HMU-beta-Gal fluorescence, 48 h; activation: at the top concentration.
How it was run: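 Fluorescence readout: HMU-β-gal cleavage by mutant GALC (0.1 mM final, citrate/phosphate pH 5.2 with 1 mg/mL taurocholate), stopped with carbonate/bicarbonate plus Triton X-100. Cells: murine Twitcher 145M-Twi expressing human G270D GALC; qHTS for activators.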
Also: 0% is about no effect; nearly all actives have a fitted effect of over 65% in size.

SMILES | activation
N[C@@H](Cc1ccc(N(CCCl)CCCl)cc1)C(=O)O | inactive: -15.7%
CC(C)=CCOc1c2occc2cc2ccc(=O)oc12 | inactive: -11.6%
C=CCN1C[C@H](C)N([C@H](c2ccc(C(=O)N(CC)CC)cc2)c2cccc(OC)c2)C[C@H]1C | inactive: -10.5%
CC(=O)[C@@]1(O)CC[C@H]2[C@@H]3C[C@H](C)C4=CC(=O)CC[C@]4(C)[C@H]3CC[C@@]21C | inactive: -16.3%
C[C@]12CC[C@H]3[C@@H](CCC4=CC(=O)CC[C@@H]43)[C@@H]1CC[C@@H]2O | inactive: -7.57%
COc1cc2[nH]c(=O)n(Cc3ccc(C(=O)N4CCN(c5ccc(Cl)cc5)CC4)cc3)c(=O)c2cc1OC | inactive: -37.7%
C[C@]12C=CC(=O)C=C1CC[C@@H]1[C@@H]2CC[C@@]2(C)[C@H]1CC[C@]2(C)O | inactive: -14.2%
CCCC12CN3CC(CCC)(CN(C1)C3c1ccccn1)C2=O (centres undefined) | inactive: -8.76%
COc1cccc(/C=C/c2nc3ccccc3c(=O)n2-c2ccc(Cl)cc2)c1OC | inactive: -9.57%
Cc1ccc(-n2c(/C=C/c3cccs3)nc3ccccc3c2=O)cc1C | inactive: -4.77%
COCCOCCO | inactive: -14.8% [at 114 µM]
COc1ccc(C)cc1NC(=O)c1cccn(Cc2cccc([N+](=O)[O-])c2)c1=O | inactive: -8.02%
CC(C)(N)Cc1ccc(Cl)cc1 | inactive: -6.4%
COc1ccc(CN2CCNCC2)c(OC)c1OC | inactive: -5.11%
CSc1ccc(CN2CCN(C(=O)COc3ccc(C)cc3)CC2)cc1 | inactive: -10.6%
COc1ccc(CCC(C)=O)cc1 | inactive: -13.9%
CCOc1ccc2nc(NC(=O)c3cccn(Cc4ccccc4)c3=O)sc2c1 | inactive: -2.6%
C=C(C)[C@H]1CN[C@H](C(=O)O)[C@H]1CC(=O)O | inactive: -10.5%
COc1ccc(OC)c(NC(=O)Cn2cc(C(=O)c3ccccc3)c3ccccc32)c1 | inactive: -9.49%
O=C(Nc1ccc(Cl)cc1C(=O)c1ccccc1)c1cc(Cl)cc(Cl)c1 | inactive: -1.31%
O=C1OC(CCN2CCCCC2)OC1(c1ccccc1)c1ccccc1 (centres undefined) | inactive: -7.81%
Cc1cc(O)ccc1Cl | inactive: -15.5%

SMILES | activation
CCOc1ccc2nc(NC(=O)c3cccn(Cc4ccc(Cl)cc4)c3=O)sc2c1 | inactive: 5.98%
COc1ccc(-c2nc(CN3C(=O)CN=C(c4ccccc4)c4cc(Cl)ccc43)c(C)o2)cc1 | inactive: 18%
Nc1ccccc1C(=O)O | inactive: -11%
O=C(Nc1ccc2c(c1)OCCO2)c1cccn(Cc2cccc(F)c2)c1=O | inactive: -18.2%
CCCC(C)C1(CC)C(=O)N=C(S)NC1=O (centres undefined) | inactive: -15.7%
CCc1ccccc1NC(=O)c1cccn(Cc2ccccc2F)c1=O | inactive: -6.33%
COc1ccc(NC(C)=O)cc1NC(=O)c1cccn(Cc2ccccc2)c1=O | inactive: -9.31%
C[N+]1(CCC(C(N)=O)(c2ccccc2)c2ccccc2)CCCCC1 | inactive: -10.7%
Cc1nnc(NC(=O)c2cccn(Cc3cccc([N+](=O)[O-])c3)c2=O)s1 | inactive: -8.43%
CC[C@H]1C[C@H]2[C@@H]3CCC4=CC(=O)CC[C@@H]4[C@H]3CC[C@]2(C)[C@H]1O | inactive: -9.23%
N#Cc1cccc(NC(=O)CSc2nc3c(cc2C#N)N2CCC3CC2)c1 | inactive: -2.27%
CC(Cc1ccc2c(c1)OCO2)NO (centres undefined) | inactive: -3.73% [at 129 µM]
Cc1ccccc1-n1c(/C=C/c2ccc(O)cc2)nc2ccccc2c1=O | inactive: -11.6%
CC(C)(C)c1ccc(OCC(=O)Nc2ccc(Cl)cc2C(=O)c2ccccc2)cc1 | inactive: 1.13%
CSc1ncc(C(=O)Nc2ccc(Cl)cc2C(=O)c2ccccc2)c(C)n1 | inactive: 2.88%
CCOc1ccccc1CN(CCc1ccc2c(c1)OCO2)Cc1ccc(CC)cc1 | inactive: -11.8%
COC(C)(C)CCCC(C)C/C=C/C(C)=C/C(=O)OC(C)C (centres undefined) | inactive: -14.4%
CC(C)(C)NC[C@H](O)c1ccc(O)cc1Cl | inactive: -11.6%
CCN(CC)C(=O)c1ccc(NC(=O)Cn2nc(-c3ccc(C)cc3)c3ccccc3c2=O)cc1 | inactive: -16.1%
Cc1ccc(Cn2cccc(C(=O)Nc3nnc(C)s3)c2=O)cc1 | inactive: -7.84%
Cc1ccc(Cl)c2sc(NC(=O)c3ccc(S(=O)(=O)N4CCCC4)cc3)nc12 | inactive: -30.7%
COc1cc(OC)cc(C(=O)Nc2nc(-c3nnn(-c4ccc(C)cc4)c3C)ns2)c1 | inactive: -36.4%

SMILES | activation
CCOC(=O)c1ccc(NC(=O)c2cccn(Cc3ccc(C)cc3)c2=O)cc1 | inactive: -10.9%
CC(C)CC(N(C)C)C1(c2ccc(Cl)cc2)CCC1 (centres undefined) | inactive: -15.5%
Cc1ccc(N=CN(C)C=Nc2ccc(C)cc2C)c(C)c1 | inactive: -9.16%
O=[N+]([O-])c1c(Cl)c(Cl)cc(Cl)c1Cl | inactive: -13.6% [at 114 µM]
CC(C)[N+](C)(CCC(C(N)=O)(c1ccccc1)c1ccccc1)C(C)C | inactive: -27.2%
C#C[C@]1(O)CC[C@H]2[C@@H]3CCC4=CC(=O)CC[C@]4(C)[C@H]3CC[C@@]21C | inactive: -3.9%
O=C(O)COc1nc(Cl)c(Cl)cc1Cl | inactive: -7.75% [at 114 µM]
Cc1ccc(NC(=O)N(Cc2ccc3c(c2)OCO3)C2CCN(Cc3ccccc3)CC2)cc1Cl | inactive: -28.6%
COP(=S)(OC)Oc1ccc(SC)c(C)c1 | inactive: -9.06%
O=c1[nH]c2ccccc2n1CCCN1CCC(n2c(=O)[nH]c3cc(Cl)ccc32)CC1 | inactive: -13.8%
C[C@H]1[C@@H]2Cc3ccc(O)cc3[C@@]1(C)CCN2C | inactive: -2.67% [at 288 µM]
CCO[C@H]1O[C@@H]2OC3(C)CC[C@H]4[C@H](C)CC[C@@H]([C@H]1C)[C@@]24OO3 | inactive: -6.76%
CCN[C@@H](C)Cc1ccccc1 | inactive: -4.18% [at 129 µM]
N#Cc1cc2c(nc1SCC(=O)Nc1ccc(F)c(Cl)c1)C1CCN2CC1 | inactive: -8.68%
COc1cc(CC(C)N)cc2c1OCO2 (centres undefined) | inactive: -4.15% [at 129 µM]
O=C(Nc1ccc(Br)cc1C(=O)c1ccccc1Cl)c1ccccc1F | inactive: -13.4%
COc1ccc(CCNCc2ccc3c(c2)n(C)c(=O)n3C)cc1 | inactive: -10.2%
O=C1CC(c2ccc(F)cc2)c2c(c3ccccc3oc2=O)O1 (centres undefined) | inactive: -10.7%
CC(Cc1ccc(O)cc1)NCC(O)c1cc(O)cc(O)c1 (centres undefined) | inactive: -5.43%
CCOc1ccc(NC(=O)c2cccn(Cc3cccc(Cl)c3)c2=O)cc1 | inactive: -26.1%
COc1ccc(NC(=O)CCc2nc(C3=CCN(Cc4cccc(Cl)c4)CC3)no2)cc1OC | inactive: -29.9%
CS(=O)(=O)c1ccc(C(=O)C2C(=O)CCCC2=O)c([N+](=O)[O-])c1 | inactive: -4.5% [at 114 µM]

SMILES | activation
N#Cc1cccc(NC(=O)c2sc3nc4c(cc3c2N)N2CCC4CC2)c1 | inactive: 1.03%
Cc1oc(-c2ccccc2Cl)nc1CN1C(=O)CN=C(c2ccccc2)c2cc(Cl)ccc21 | inactive: 6.42%
C=CC[C@]1(O)CC[C@H]2[C@@H]3CCC4=CC(=O)CCC4=C3C=C[C@@]21C | inactive: -20.7%
Cc1ccc(-n2nc(C)c3c2NC(=O)CSC3c2ccc(O)cc2)cc1Cl (centres undefined) | inactive: 13.3%
O=c1c2ccccc2nc(/C=C/c2ccccc2O)n1-c1ccc(Br)cc1 | inactive: -7.42%
CCCC12CN3CC(C)(CN(C1)C3c1ccccn1)C2=O (centres undefined) | inactive: -4.75%
CCOc1ccc2nc(NC(=O)c3cccn(Cc4ccc(C)cc4)c3=O)sc2c1 | inactive: -8.99%
O=C1CN=C(c2ccccc2)c2cc([N+](=O)[O-])ccc2N1 | inactive: -7.25%
Cc1ccc(S(=O)(=O)N[C@@H](CCCCN)C(=O)CCl)cc1 | inactive: -17.2%
O=C(Nc1ccc(F)c(Cl)c1)N(Cc1ccc2c(c1)OCO2)C1CCN(Cc2ccccc2)CC1 | inactive: -12.1%
CN1C(=O)COc2c(C(=O)NC3CN4CCC3CC4)cc(Cl)cc21 (centres undefined) | inactive: -17.3%
Nc1c(C(=O)Nc2ccc(F)c(Cl)c2)sc2nc3c(cc12)N1CCC3CC1 | inactive: -0.916%
O=C(Nc1ccc2c(c1)OCO2)c1cccn(Cc2ccccc2)c1=O | inactive: -18%
CCOC(=O)C1(c2ccccc2)CCN(CCc2ccc(N)cc2)CC1 | inactive: -17.1%
O=C(Nc1ccon1)c1cccn(Cc2cccc([N+](=O)[O-])c2)c1=O | inactive: -4.98%
Nc1ccc(N)cc1 | inactive: -16.3%
O=C(Nc1ccccc1)N(Cc1ccc2c(c1)OCO2)C1CCN(Cc2ccccc2)CC1 | inactive: -9.7%
Cc1cccc(C)c1NC1=NCCCS1 | inactive: -11%
CCc1ccc(C2CCNCC2)cc1 | inactive: -18.8%
CCO/N=C(\CC)C1=C(O)CC(c2c(C)cc(C)cc2C)CC1=O (centres undefined) | inactive: -19.7% [at 114 µM]
CC(CC(C#N)(c1ccccc1)C(C)C)N(C)C (centres undefined) | inactive: -7.75%
COC(=O)c1ccccc1NC(=O)c1cccn(Cc2cccc(Cl)c2)c1=O | inactive: -24.3%

SMILES | activation
CCCSP(=O)(OCC)SCCC | inactive: -6.13% [at 114 µM]
Clc1ccc(C(OCCN2CCCCC2)c2ccccc2)cc1 (centres undefined) | inactive: -14.4%
Cc1ccc(-c2nc(CN3C(=O)CN=C(c4ccccc4Cl)c4cc(Cl)ccc43)c(C)o2)cc1 | inactive: -17.4%
C[N+]1(C)[C@@H]2CC[C@H]1CC(OC(=O)C(CO)c1ccccc1)C2 (some centres undefined) | inactive: -10.2%
CC[N+]1(CCOC(=O)C(O)(c2ccccc2)c2ccccc2)CCCCC1 | inactive: -19.7%
O=C(Nc1ccc2c(c1)OCCO2)c1cccn(Cc2ccccc2)c1=O | inactive: -13.8%
Cc1c(Cl)c(=O)oc2cc(OP(=O)(OCCCl)OCCCl)ccc12 | inactive: -15.3%
Cc1cccc(Cn2cccc(C(=O)Nc3nnc(C)s3)c2=O)c1 | inactive: -24.5%
CC(C)C[C@@H]1[C@H](c2ccccc2)OC(=O)N1CCCN1CCCCCC1 | inactive: -14%
O=C1CC(c2ccc(C(F)(F)F)cc2)c2c(c3ccccc3oc2=O)O1 (centres undefined) | inactive: -8.34%
Nc1ccccc1 | inactive: -13.8%
O=C(O)COc1ccccc1 | inactive: -12.2%
C=CCc1ccccc1OCCn1c(C2CC(=O)N(Cc3ccc(F)cc3)C2)nc2ccccc21 (centres undefined) | inactive: -36.3%
Cc1ccc(NC(=O)CN2C(=O)CN=C(c3ccccc3)c3ccccc32)cc1Cl | inactive: -28%
N#Cc1cc2c(nc1SCC(=O)Nc1cccc(C(F)(F)F)c1)C1CCN2CC1 | inactive: 9.65%
COc1ccc(C(c2c(O)c3ccccc3oc2=O)c2c(C)n(C)n(-c3ccccc3)c2=O)cc1 (centres undefined) | inactive: -5.3%
CCSc1nnc(NC(=O)c2cccn(Cc3ccccc3Cl)c2=O)s1 | inactive: 8.64%
CCOc1ccccc1NC(=O)c1cccn(Cc2ccccc2C)c1=O | inactive: 5.88%
CCC(=O)C(CCN(C)C)(c1ccccc1)c1ccccc1 | inactive: -7.94%
CC(=O)c1cccc(NC(=O)c2cccn(Cc3cccc(C)c3)c2=O)c1 | inactive: -21.2%
C[N+](C)(C)CCOC(=O)C(O)(c1ccccc1)c1ccccc1 | inactive: -6.42%
